# Measured values: PubChem BioAssay (NCATS)
# This list was built around the results that the source calls inconclusive (neither active nor inactive); the mix of calls is not that of the screen. For some of these results: No potency is given beside an inconclusive call; the fits are too rough. For some of these results: “Side channel” marks fits to a control or component signal instead of the main read-out. Active and inactive are the calls of the source. Unless noted, the call rests on the fitted dose curve; in most records, active means well fitted curve in the direction sought with a large enough effect; inconclusive means small, poorly fitted or top-dose-only effect, or another doubt; inactive means no such curve, though single readings can be large; an effect the other way counts as inactive or inconclusive.
# How the values were obtained:
# [1] = Cell Viability - Hek293 (AID 427;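 active means compounds whose dose-response curve shows a full or clear partial loss of cell viability, called from curve shape rather than a numeric limit; inconclusive means weak partial curves or an effect only at the top dose; inactive means no dose-dependent loss of viability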;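 further: potency means the concentration at half of the fitted maximal effect; cells exposed to compound for 40 hours at 37 °C before reading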); settings: qHTS
# Method in brief: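 HEK293 cells in complete medium were exposed to compound for 40 hr at 37 °C, then cellular ATP was read by CellTiter-Glo luminescence. Data were normalized to DMSO (basal) and 100 uM tamoxifen (100% inhibition), and AC50 came from Hill fits.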
# [2] = Cell Viability - HepG2 (AID 433; calls by dose curve;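 further: potency means the concentration at half of the fitted maximal effect; potency for ATP loss meaning cytotoxicity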); settings: qHTS
# Method in brief: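 Read-out is luciferase-based quantitation of cellular ATP as a measure of viable HepG2 cells after 40 h treatment at 37 °C. Signal decrease is scaled between DMSO-only and 100 uM tamoxifen controls, with AC50 fitted by the Hill equation.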
# [3] = Cell Viability - N2a (AID 540); settings: N2a mouse neuroblastoma cell viability; activity change, negative = cytotoxicity: at 92.2 µM (top of the series);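 further: plate controls were DMSO alone for no effect and tamoxifen control for full effect; nearly all actives have a fitted effect of over 45% in size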
# Method in brief: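 First, 1500 N2a cells per well incubate 5 hr at 37 °C; next, compounds are added and incubated 40 hr at 37 °C; finally CellTiter-Glo is added and luminescence read after 20 min, with AC50 derived by Hill modeling.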
# [4] = Cell Viability - H-4-II-E (AID 543); settings: H-4-II-E rat hepatoma viability; series mostly up to 92.2 µM; further: potency means the concentration at half of the fitted maximal effect; nearly all actives have a fitted effect of over 35% in size
# Method in brief: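 Here, cytotoxicity is measured in the rat hepatoma line H-4-II-E as loss of intracellular ATP after 40 hr compound treatment, detected by luciferase luminescence.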
# [5] = Cell Viability - Renal Proximal Tubule (AID 545); settings: renal proximal tubule cells viability, primary cells of rat origin; activity change, negative = cytotoxicity: at 91.7 µM (top of the series);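 further: 0% = DMSO only and -100% = 100 µM tamoxifen; nearly all actives have a fitted effect of over 40% in size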
# Method in brief: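 Luminescent ATP signal (CellTiter-Glo) served as the viability read-out after 40 hr compound exposure of freshly isolated rat proximal tubule cells at 37 °C. Concentration-dependent ATP loss was fitted with the Hill equation to give AC50.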
# [6] = Cell Viability - Mesenchymal (AID 546); settings: mesenchymal cells viability, qHTS; activity change, negative = cytotoxicity: at 91.7 µM (top of the series);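 further: potency means the concentration at half of the fitted maximal effect; cells exposed to compound for 40 hours before reading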
# Method in brief: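 Human kidney mesenchymal cells from normal renal glomeruli, 1000 cells/well, rested 5 hr at 37 °C, then treated 40 hr at 37 °C in complete medium. Cellular ATP read by CellTiter-Glo luminescence; AC50 from Hill-equation fits.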
# [7] = Cellular Toxicity (caspase-3) N2a (AID 665); settings: N2a cells, luminescence; Potency: caspase-3 activation; caspase-3 activation: at 92.2 µM (top of the series), normalized: DMSO 0%, 10 µM staurosporine 100%;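 further: compound exposure lasted 16 h at 37 °C before readout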
# Method in brief: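 Plated mouse neuroblastoma N2a cells received titrated compounds for 16 h in complete medium. Caspase activity was then detected with a peptide-aminoluciferin luminescent reagent.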
# [8] = Confirmation and Secondary Assay for Modulators of Hemoglobin Beta Chain Splicing at IVS2 654 locus (AID 910); settings: HeLa EGFP-654 splicing reporter, GFP fluorescence, 48 h;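 further: HeLa cells stably carrying EGFP split by mutant beta-globin IVS2-654 intron; potency means the concentration at half of the fitted maximal effect; potency of activators that raise GFP signal by restoring correct splicing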
# Method in brief: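 HeLa cells stably expressing EGFP interrupted by β-globin IVS2-654 intron, seeded overnight in Opti-MEM/2% FCS, then treated 2 days at 37 °C. Restored splicing read as total peak GFP intensity per well by laser scanning cytometry (488 nm excitation, 500–520 nm emission); 500 nM antisense PNA as control.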
# [9] = Cell Viability - LYMP1-002 - Assay at 16 hr (AID 948); settings: LYMP1-002 lymphoblastoid cell viability; series mostly up to 92.2 µM; further: potency means the concentration at half of the fitted maximal effect
# Method in brief: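 Seed 2500 LYMP1-002 cells per well in complete medium and hold 5 hr at 37 C. Add compound across a concentration series and incubate 16 hr at 37 C. Add CellTiter-Glo, wait 30 min at room temperature, read luminescence.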
# [10] = Cell Viability - LYMP1-003 - Assay at 24 hr (AID 963); settings: LYMP1-003 lymphoblastoid cell viability; series mostly up to 92.2 µM; further: potency means the concentration at half of the fitted maximal effect
# Method in brief: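 Acute toxicity in LYMP1-003 lymphoblastoid cells: 24 hr compound treatment at 37 C, ATP measured with CellTiter-Glo after 30 min at room temperature. AC50 derived by fitting the Hill equation to qHTS titrations.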
# [11] = Cell Viability - LYMP2-003 (AID 965); settings: LYMP2-003 lymphoblastoid cell viability; series mostly up to 92.2 µM;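 further: potency means the concentration at half of the fitted maximal effect; cells exposed to compounds for 24 h before reading; nearly all actives have a fitted effect of over 50% in size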
# Method in brief: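 Seed 2500 lymphoblastoid cells/well; incubate 5 hr, 37 C; add compounds; incubate 24 hr, 37 C; add CellTiter-Glo, 30 min RT; read luminescence. AC50 from Hill fit.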
# [12] = Cell Viability - LYMP2-004 (AID 966); settings: LYMP2-004 lymphoblastoid cell viability, qHTS; series mostly up to 92.2 µM; further: potency means the concentration at half of the fitted maximal effect; nearly all actives have a fitted effect of over 65% in size
# Method in brief: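 Acute toxicity is scored as a concentration-dependent drop in intracellular ATP, quantified by luciferase luminescence, in human lymphoblastoid cells exposed to compound for 24 hr. AC50 derives from Hill-equation modelling.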
# [13] = Cell Viability - LYMP2-009 (AID 968); settings: LYMP2-009 lymphoblastoid cell viability; series mostly up to 92.2 µM; further: potency means the concentration at half of the fitted maximal effect; nearly all actives have a fitted effect of over 55% in size
# [14] = Cell Viability - LYMP2-019 (AID 973); settings: LYMP2-019 lymphoblastoid cell line viability; series mostly up to 92.2 µM; further: potency means the concentration at half of the fitted maximal effect; nearly all actives have a fitted effect of over 55% in size
# Method in brief: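 Cells plated at 2500/well and allowed 5 hr at 37 C before compound addition. After 24 hr incubation, CellTiter-Glo reagent was added, plates sat 30 min at room temperature, and luminescence was recorded.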
# [15] = Cell Viability - LYMP2-021 (AID 974); settings: LYMP2-021 lymphoblastoid cells viability; series mostly up to 92.2 µM;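 further: potency means the concentration at half of the fitted maximal effect; compound exposure lasts 24 hours at 37 °C; nearly all actives have a fitted effect of over 55% in size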
# Method in brief: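 Concentration-response cytotoxicity in a human lymphoblastoid line: 24 hr treatment at 37 C in complete culture medium, tetraoctylammonium bromide as positive control, luminescent ATP quantitation as viability measure.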
# [16] = Cell Viability - LYMP2-023 (AID 975); settings: LYMP2-023 lymphoblastoid cell viability; series mostly up to 92.2 µM;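 further: potency means the concentration at half of the fitted maximal effect; cells exposed to compound for 24 hours at 37 °C; nearly all actives have a fitted effect of over 55% in size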
# Method in brief: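 Concentration-dependent drop in intracellular ATP measures acute cytotoxicity in a human lymphoblastoid line treated for 24 hours in complete culture medium. AC50 values are taken from Hill-equation fits of qHTS data.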
# [17] = Cell Viability - LYMP2-025 (AID 976); settings: LYMP2-025 lymphoblastoid cell viability; activity change, negative = cytotoxicity: at 92.2 µM (top of the series); further: potency means the concentration at half of the fitted maximal effect
# Method in brief: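 In qHTS format, LYMP2-025 lymphoblastoid cells in complete culture medium received compound for 24 hr; ATP-based CellTiter-Glo signal gave viability, with AC50 derived by Hill equation.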
# [18] = Cell Viability - LYMP2-008 (AID 980); settings: LYMP2-008 lymphoblastoid cell viability, qHTS; further: potency means the concentration at half of the fitted maximal effect; nearly all actives have a fitted effect of over 60% in size
# Method in brief: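 Acute cytotoxicity is scored as concentration-dependent loss of cellular ATP in a human lymphoblastoid line after 24 hr treatment at 37 C. ATP is quantified by luciferase luminescence.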
# [19] = Cell Viability - LYMP2-014 (AID 983); settings: LYMP2-014 lymphoblastoid cells, viability qHTS; series mostly up to 92.2 µM; further: potency means the concentration at half of the fitted maximal effect; nearly all actives have a fitted effect of over 50% in size
# Method in brief: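 Decrease in intracellular ATP after 24 hr treatment at 37 C, measured by luciferase luminescence, indicated cytotoxicity. Concentration-response data were fitted with the standard Hill equation to give AC50.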
# [20] = Cell Viability - LYMP2-026 (AID 989); settings: LYMP2-026 lymphoblastoid cell viability, qHTS; series mostly up to 92.2 µM; further: potency means the concentration at half of the fitted maximal effect; nearly all actives have a fitted effect of over 50% in size
# Method in brief: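 Concentration-dependent loss of intracellular ATP in human lymphoblastoid cells after 24 hr at 37 C, quantified by luciferase luminescence. AC50 derived from standard Hill equation.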
# [21] = Cell Viability - LYMP1-002 - Assay at 24 hr (AID 993); settings: LYMP1-002 lymphoblastoid cells viability; series mostly up to 92.2 µM; further: potency means the concentration at half of the fitted maximal effect
# Method in brief: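 qHTS, LYMP1-002 lymphoblastoid, 24 h cpd, 37 C, CellTiter-Glo ATP luminescence; AC50 via Hill eq.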
# [22] = Cell Viability - LYMP1-002 - Assay at 40 hr (AID 994); settings: LYMP1-002 lymphoblastoid cell viability; series mostly up to 92.2 µM; further: potency means the concentration at half of the fitted maximal effect; nearly all actives have a fitted effect of over 60% in size
# Method in brief: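 Viability in the human lymphoblastoid line was measured as intracellular ATP via CellTiter-Glo after 40 hr compound exposure. Tetraoctylammonium bromide served as positive control.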
# [23] = molecular target: Peroxisome proliferator-activated receptor gamma (Homo sapiens) (UniProt P37231); assay: qHTS assay for small molecule agonists of peroxisome proliferator-activated receptor gamma signaling (AID 588536; active means well fitted curve in the direction sought with a large enough effect in the signal ratio, with a control signal flat, not every such curve was filed as active; inconclusive means small, poorly fitted or top-dose-only effect, or effect the other way, or a change in a side signal; inactive means no such curve, though single readings can be large or run the other way; the % refers to the signal ratio; further: potency means the concentration at half of the fitted maximal effect); settings: HEK293 PPARg-UAS-bla, beta-lactamase ratio, 16 h; activation: at 76.7 µM (top of the series), percent of rosiglitazone response, DMSO as zero
# Method in brief: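 GeneBLAzer PPAR-gamma-UAS-bla HEK293 cells in 1% charcoal/dextran-treated FBS medium were treated 16 h at 37 C with compounds. Beta-lactamase activity was read by CCF4 ratio (460/530 nm). Response was normalized to 2 uM rosiglitazone (100%) and DMSO, then Hill-fitted for EC50 and efficacy.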
# [24] = molecular target: Peroxisome proliferator-activated receptor gamma (Homo sapiens) (UniProt P37231); assay: qHTS assay for small molecule antagonists of peroxisome proliferator-activated receptor gamma signaling (AID 588537; active means well fitted inhibition curve with a large enough effect in the signal ratio, with a control signal flat, not every such curve was filed as active; inconclusive means small, poorly fitted or top-dose-only effect, or effect the other way, or a change in a side signal; the % refers to the signal ratio); settings: HEK293 PPARg-UAS-bla, beta-lactamase ratio, antagonist mode; activity, negative = inhibition: at 76.8 µM (top of the series)
# Method in brief: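 Step one: plate 3000 HEK293 UAS-bla cells per well in medium with 1% stripped serum and hold 6-6.5 h at 37 C. Step two: add compound and 50 nM agonist for 16 h. Step three: CCF4 loading, fluorescence read.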
# [25] = molecular target: Vitamin D3 receptor (Homo sapiens) (UniProt P11473); assay: qHTS assay for small molecule antagonists of vitamin D receptor signaling (AID 588541; calls by dose curve;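 further: receptor activated by calcitriol during compound treatment; on the % scale 0 is the no-effect control and ±100 the full control effect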); settings: HEK293T VDR-UAS-bla, beta-lactamase ratio, antagonist mode; activity change, negative = inhibition: at 76.7 µM (top of the series)
# [26] = molecular target: Retinoic acid receptor RXR-alpha (Homo sapiens) (UniProt P19793); assay: qHTS assay for small molecule agonists of retinoid X receptor alpha signaling (AID 588544; calls by dose curve; further: potency means the concentration at half of the fitted maximal effect); settings: HEK293T RXRa-UAS-bla, beta-lactamase reporter, 18 h; activation: at 76.7 µM (top of the series) unless noted
# [27] = molecular target: Luciferin 4-monooxygenase (Photinus pyralis) (UniProt P08659); assay: Biochemical firefly luciferase enzyme assay for NPC (AID 624030);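 further: purified P. pyralis luciferase at 10 nM with luciferin and ATP substrate; 0% = DMSO and -100% = full luciferase inhibition by PTC124 control; nearly all actives have a fitted effect of over 70% in size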; settings: purified P. pyralis luciferase, luminescence, 5 min; series mostly up to 58.6 µM
# Method in brief: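 Purified P. pyralis luciferase at 10 nM in 50 mM Tris Acetate (final), luminescence read within 5 minutes of enzyme addition to compounds. Activity normalised to PTC124 versus DMSO; concentration-response curves classed by r2, magnitude and activity.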
# [28] = S16 Schwann cell PMP22 intronic element beta-lactamase assay (AID 624044; calls by dose curve; further: potency means the concentration at half of the fitted maximal effect; nearly all actives have a fitted effect of over 15% in size); settings: S16 rat Schwann cells, PMP22 element beta-lactamase FRET, 24 h; ratio activity, negative = inhibition: at 38.3 µM (top of the series) unless noted
# Method in brief: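 Rat S16 Schwann cells with beta-Lac driven by a PMP22 intronic element, compound-treated 24 h at 37 °C. LiveBLAzer FRET B/G read: 460 nm normalized to potassium clavulanate vs DMSO; 535 nm FRET as viability; concentration-effect curves classified.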
# Tags describe the fitted curve by direction and shape or compound fluorescence and quenching.
# Sequence of UniProt P08659 (P08659 whole entry, looked up): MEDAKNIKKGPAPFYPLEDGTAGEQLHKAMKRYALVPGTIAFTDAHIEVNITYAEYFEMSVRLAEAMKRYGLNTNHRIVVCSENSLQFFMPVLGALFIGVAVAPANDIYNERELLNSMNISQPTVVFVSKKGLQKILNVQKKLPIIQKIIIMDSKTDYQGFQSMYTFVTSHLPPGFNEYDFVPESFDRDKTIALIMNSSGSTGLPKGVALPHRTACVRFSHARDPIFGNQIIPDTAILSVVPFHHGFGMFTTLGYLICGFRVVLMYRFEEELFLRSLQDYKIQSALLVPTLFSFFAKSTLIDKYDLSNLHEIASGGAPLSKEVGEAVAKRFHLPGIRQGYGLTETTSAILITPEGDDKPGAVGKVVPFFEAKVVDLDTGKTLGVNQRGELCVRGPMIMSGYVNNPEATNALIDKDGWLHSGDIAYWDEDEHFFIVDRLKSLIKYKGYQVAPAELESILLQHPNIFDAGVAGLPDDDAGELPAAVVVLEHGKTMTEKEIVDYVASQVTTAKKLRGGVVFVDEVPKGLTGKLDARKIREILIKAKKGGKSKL
# Sequence of UniProt P19793 (P19793 whole entry, looked up): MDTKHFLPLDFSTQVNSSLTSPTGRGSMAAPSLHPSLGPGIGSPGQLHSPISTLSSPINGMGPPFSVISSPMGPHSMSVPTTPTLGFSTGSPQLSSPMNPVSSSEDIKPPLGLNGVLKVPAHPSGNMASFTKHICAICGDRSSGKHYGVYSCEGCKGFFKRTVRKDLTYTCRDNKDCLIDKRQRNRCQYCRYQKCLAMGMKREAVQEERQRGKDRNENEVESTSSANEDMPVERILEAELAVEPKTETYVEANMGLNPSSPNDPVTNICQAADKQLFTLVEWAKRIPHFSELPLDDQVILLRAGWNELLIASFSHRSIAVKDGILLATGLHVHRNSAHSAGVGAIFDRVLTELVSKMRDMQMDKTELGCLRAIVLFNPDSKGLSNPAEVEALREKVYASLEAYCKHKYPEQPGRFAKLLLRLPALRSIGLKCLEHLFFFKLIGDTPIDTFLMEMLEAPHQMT
compound,measurement,setting,value
S=C1NC=NC2N=CNC12 (stereo not drawn),Potency,[1],active: 1.03 µM
same,Potency,[2],active: 1.23 µM
same,"activity change, negative = cytotoxicity",[3],inconclusive: -47.1%
same,Potency,[4],active: 0.158 µM
same,"activity change, negative = cytotoxicity",[5],inconclusive: -48.9%
same,Potency,[6],active: 0.501 µM
same,caspase-3 activation,[7],inconclusive: 30.7%
same,Potency,[8],active: 3.16 µM
same,Potency,[9],"inconclusive [cytotoxic, full curve, poor fit]"
same,Potency,[10],"inconclusive [cytotoxic, full curve]"
same,Potency,[11],"inconclusive [cytotoxic, full curve, poor fit]"
same,Potency,[12],"inconclusive [cytotoxic, full curve, poor fit]"
same,Potency,[13],"inconclusive [cytotoxic, full curve, poor fit]"
same,Potency,[14],"inconclusive [cytotoxic, partial curve]"
same,Potency,[15],"inconclusive [cytotoxic, partial curve]"
same,Potency,[16],"inconclusive [cytotoxic, full curve]"
same,Potency,[17],"inconclusive [cytotoxic, full curve]"
same,Potency,[18],"inconclusive [cytotoxic, full curve]"
same,Potency,[19],"inconclusive [cytotoxic, partial curve]"
same,Potency,[20],"inconclusive [cytotoxic, partial curve]"
same,Potency,[21],"inconclusive [cytotoxic, full curve]"
same,Potency,[22],"inconclusive [cytotoxic, full curve]"
same,Potency,[23],"inconclusive [side channel, rising, full curve, poor fit]"
same,Potency,[24],"inconclusive [side channel, rising, partial curve]"
same,"activity change, negative = inhibition",[25],inconclusive: -33.2%
same,Potency,[26],"inconclusive [side channel, rising, full curve]"
same,Potency,[27],inactive
same,Potency,[28],active: 17.8 µM
